Experimental data taken from PubChem BioAssay AID504339 (National Center for Advancing Translational Sciences (NCATS), 2011).
In all, about 390,000 compounds went through this assay and about 17,000 (4.4%) were called active. Inconclusive means that the source gave no clear call. Such entries were picked first, then a sample of the others. Calls follow the shape of the dose curve; as a rule, active = well fitted inhibition curve with a large enough effect; inconclusive = small, poorly fitted or top-dose-only effect; inactive = no such curve, though single readings can be large or run the other way. Where the call is inconclusive, the potency comes from a doubtful curve fit.

target: Lysine-specific demethylase 4A (Homo sapiens) (UniProt O75164); experiment: qHTS Assay for Inhibitors of JMJD2A-Tudor Domain; conditions: AlphaScreen JMJD2A-Tudor / H3K4me3 peptide binding; activity change, negative = inhibition: at 114 µM (top of the series); also: nearly all actives have a fitted effect of over 50% in size
Chain of UniProt O75164 (O75164 whole entry, looked up, the tested form may be a part): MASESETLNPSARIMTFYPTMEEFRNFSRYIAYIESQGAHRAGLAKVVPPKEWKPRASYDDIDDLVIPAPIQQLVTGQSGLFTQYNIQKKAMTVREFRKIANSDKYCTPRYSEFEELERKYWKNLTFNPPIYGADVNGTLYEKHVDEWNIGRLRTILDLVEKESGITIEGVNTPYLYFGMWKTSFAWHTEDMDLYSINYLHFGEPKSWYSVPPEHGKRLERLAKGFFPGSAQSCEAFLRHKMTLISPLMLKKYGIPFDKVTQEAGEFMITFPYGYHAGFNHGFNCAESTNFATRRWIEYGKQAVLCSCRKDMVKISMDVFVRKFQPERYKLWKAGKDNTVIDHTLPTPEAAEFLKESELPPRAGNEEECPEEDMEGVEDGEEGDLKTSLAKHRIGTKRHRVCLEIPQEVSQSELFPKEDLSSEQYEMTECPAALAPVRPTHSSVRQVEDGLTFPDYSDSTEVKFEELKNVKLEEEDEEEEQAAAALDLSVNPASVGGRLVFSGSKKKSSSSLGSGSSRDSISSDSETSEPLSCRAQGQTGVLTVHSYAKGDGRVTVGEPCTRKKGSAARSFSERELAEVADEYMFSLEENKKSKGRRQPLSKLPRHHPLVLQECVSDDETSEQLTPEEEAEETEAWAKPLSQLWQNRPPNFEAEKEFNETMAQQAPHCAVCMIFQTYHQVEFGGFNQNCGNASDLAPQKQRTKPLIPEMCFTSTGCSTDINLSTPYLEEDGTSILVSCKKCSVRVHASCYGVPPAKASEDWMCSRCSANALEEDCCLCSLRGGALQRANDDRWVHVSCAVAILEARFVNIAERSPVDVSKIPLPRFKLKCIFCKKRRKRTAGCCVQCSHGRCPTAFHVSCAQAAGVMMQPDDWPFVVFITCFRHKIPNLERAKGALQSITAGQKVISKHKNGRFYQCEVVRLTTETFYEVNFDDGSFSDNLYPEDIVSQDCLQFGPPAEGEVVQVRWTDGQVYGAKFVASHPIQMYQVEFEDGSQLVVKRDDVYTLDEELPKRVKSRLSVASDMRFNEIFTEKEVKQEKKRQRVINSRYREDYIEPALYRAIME
% is scaled to controls: 0 for no effect and ±100 for the full control effect; potency is read from the fitted curve at half-maximal effect; tags tell the direction and shape of the fitted curve.

Row | SMILES | Potency | activity change, negative = inhibition
1 | CC1CCC(C(C)C)C(OCC(O)CN2CCN(Cc3ccccc3)CC2)C1 (stereo not given) | inconclusive: 28.2 µM [inhibitor, full curve] | –
2 | CCCOc1ccc(/C=C2\SC(=S)N(CC3CCCO3)C2=O)cc1 (stereo not given) | inconclusive: 22.4 µM [inhibitor, partial curve] | –
3 | O=[N+]([O-])c1ccc(Sc2cc[n+]([O-])c3ccccc23)c([N+](=O)[O-])c1 | inconclusive: 63.1 µM [inhibitor, partial curve, poor fit] | –
4 | CCOC(=O)COc1ccc2c(c1)c(C(C)=O)c(C)n2-c1ccccc1 | inconclusive: 112 µM [inhibitor, partial curve] | –
5 | COc1ccc(N/N=C(C)/C(=N/O)C(=O)Nc2ccccc2)cc1 | inconclusive: 22.4 µM [inhibitor, full curve] | –
6 | N#Cc1c(-c2ccccc2)nc(SCc2nc(N)nc(N3CCCCC3)n2)[nH]c1=O | inconclusive: 3.55 µM [inhibitor, single point] | –
7 | O=S(=O)(c1ccc2nc(Nc3ccc(Br)cc3F)ccc2c1)N1CCCCC1 | inactive | –
8 | CC(C)c1ccc2[nH]c3nc(SCC(=O)N4CCOCC4)nnc3c2c1 | inconclusive: 89.1 µM [inhibitor, single point] | –
9 | O=C(CI)Nc1cccc2cccnc12 | active: 20 µM | –
10 | Cc1ccc(/C=N/NC(=S)Nc2cccc(S(=O)(=O)N(C)C)c2)o1 | inconclusive: 56.2 µM [inhibitor, partial curve] | –
11 | COc1ccc(C(CNC(=O)c2ccccc2SC)N(C)C)cc1 (stereo not given) | inactive | –
12 | O=S(=O)(Nc1cccc(-c2ccc(N3CCOCC3)nn2)c1)c1ccc(F)c(C(F)(F)F)c1 | inactive | –
13 | COc1ccccc1/C=N/NC(=O)c1c(-c2ccccc2)noc1C | inactive | –
14 | COc1ccc(Nc2cc(C(=O)NCc3ccco3)c3ccccc3n2)c(OC)c1 | inconclusive: 28.2 µM [inhibitor, full curve] | –
15 | Cc1ccc(Sc2ncccc2C(=O)NCC(c2ccc(F)cc2)N2CCOCC2)cc1C (stereo not given) | inconclusive: 89.1 µM [inhibitor, single point] | –
16 | O=C1NC[C@@H](Cc2cccc3ccccc23)N(CCc2cc(C(F)(F)F)cc(C(F)(F)F)c2)C1=O | inconclusive: 89.1 µM [inhibitor, partial curve] | –
17 | Cc1cccc(NC(=O)c2ccc(Cn3nc(N4CCN(c5ccccc5)CC4)ccc3=O)o2)c1C | inconclusive: 25.1 µM [inhibitor, full curve, poor fit] | –
18 | CCCCOC(=O)c1cc(-c2ccc(/C=N/n3cnnc3)o2)ccc1Cl | active: 56.2 µM | –
19 | O=C(c1cc(C2CC2)nn1-c1ccccc1)N1CCN(c2ccc(O)cc2)CC1 | active: 31.6 µM | –
20 | COc1ccc(N2CCN(Cc3cc4c(cc3Br)OCCO4)CC2)cc1 | active: 22.4 µM | –
21 | CCc1c(C)nc2ncnn2c1NCc1cccs1 | inactive | –
22 | Cc1ccc(-n2c(-c3ccccc3)n[nH]c2=S)cc1 | active: 2.24 µM | –
23 | Cc1cc(C)c(S(=O)(=O)N2CCOC2CNC(=O)C(=O)NCCc2c[nH]c3ccccc23)c(C)c1 (stereo not given) | inconclusive: 44.7 µM [inhibitor, partial curve] | –

Row | SMILES | Potency | activity change, negative = inhibition
24 | Cc1ccc(N(CC(=O)N2CCN(c3cccc(C)c3C)CC2)S(=O)(=O)c2c(C)nn(C)c2C)cc1 | inconclusive: 3.55 µM [inhibitor, full curve] | –
25 | CCN(c1cc(C)cc(C)c1)S(=O)(=O)c1nnc(NC(=O)c2ccccc2C)s1 | inactive | –
26 | O=C(CN1CCN(Cc2ccccc2)CC1)N1CCCc2c1c(=O)oc1ccc(O)cc21 | inconclusive: 56.2 µM [inhibitor, partial curve] | –
27 | CCN1CCN(S(=O)(=O)c2cc3c(cc2Cl)NC(=O)CO3)CC1 | inactive | –
28 | CC(C)OCCCn1c(SCc2ccccc2Cl)nc2c(sc3ccccc32)c1=O | inactive | –
29 | Cc1nc(-c2ccc(NC(=O)/C=C\C(=O)O)cc2)cs1 | inconclusive: 44.7 µM [inhibitor, partial curve] | –
30 | CCN(CC(=O)Nc1ccc(OC)cc1)C(=O)c1ccc2[nH]c3c(c2c1)CC(C)CC3 (stereo not given) | inconclusive: 31.6 µM [inhibitor, partial curve] | –
31 | C/C(=N\Nc1ccccc1)c1cccc(N)c1 | inconclusive: 39.8 µM [inhibitor, partial curve] | –
32 | COc1ccc(C(=O)NCc2ccc3c(c2)CCN3C(=O)c2ccc(Cl)cc2)c(OC)c1 | inconclusive: 79.4 µM [inhibitor, partial curve] | –
33 | CN(C(=O)CSc1nc(-c2ccccc2)c(-c2ccccc2)o1)C1CCS(=O)(=O)C1 (stereo not given) | inconclusive: 25.1 µM [inhibitor, partial curve] | –
34 | COc1cc(OC)cc(C(=O)Nc2cccc(-c3cn4ccsc4n3)c2)c1 | inconclusive: 35.5 µM [inhibitor, partial curve] | –
35 | CCOC(=O)C1(CCOC)CCN(Cc2ccccc2-c2ccco2)CC1 | inconclusive: 89.1 µM [inhibitor, partial curve] | –
36 | O=C1Nc2ccccc2/C1=N\N=C\c1ccc(O)c(O)c1 | inconclusive: 2.51 µM [inhibitor, full curve, poor fit] | –
37 | O=C(NCCSc1ccc(Cl)cc1)c1ccco1 | inactive | –
38 | O=C(NC1CCCCCCC1)c1ccccc1O | – | inactive: -1.37% [at 11.4 µM]
39 | CN1CCc2c1nc1ccccc1c2NC(=O)CN1CCCC1 | active: 5.62 µM | –
40 | CN(C)c1ccc(C(=O)NCc2ccc3c(c2)CCN3C(=O)c2ccc(Cl)cc2)cc1 | inconclusive: 15.8 µM [inhibitor, full curve, poor fit] | –
41 | CSc1oc(-c2ccco2)nc1S(=O)(=O)c1ccccc1 | inactive | –
42 | Cc1nnc(SCc2ccc(CC(=O)O)cc2)o1 | inactive | –
43 | COc1ccc(Cl)cc1NC(=O)CCn1nc(C)cc1C | inconclusive: 70.8 µM [inhibitor, single point] | –
44 | CN1C(=O)c2ccccc2Sc2ccc(NC(=O)N3CCN(c4cccc(Cl)c4)CC3)cc21 | inconclusive: 79.4 µM [inhibitor, partial curve] | –
45 | O=S(=O)(c1cccs1)N1CCN(c2nc(-c3cccs3)nc3ccccc23)CC1 | inactive | –
